Assay results reported in paper PMC12136788.
The list shows a part of the results.

T1: UNK ZnF1-6 (called full-length) (human, UniProt Q9C0B0 30-357)
T1 sequence: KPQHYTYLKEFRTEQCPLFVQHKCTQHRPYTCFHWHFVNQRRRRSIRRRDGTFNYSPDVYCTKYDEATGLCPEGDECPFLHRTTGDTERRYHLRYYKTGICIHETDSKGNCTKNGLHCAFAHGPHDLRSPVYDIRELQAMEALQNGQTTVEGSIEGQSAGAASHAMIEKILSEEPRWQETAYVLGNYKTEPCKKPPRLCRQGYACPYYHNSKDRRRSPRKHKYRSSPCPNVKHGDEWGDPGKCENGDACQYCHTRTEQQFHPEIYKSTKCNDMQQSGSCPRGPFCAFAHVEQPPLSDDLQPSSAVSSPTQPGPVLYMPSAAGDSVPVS

B1: chr1:152032676:152032810:-|CDS|ENSG00000163191|unk|total|mutant (ssRNA)
RNA: GGGAGUUCUACAGUCCGACGAUCGGACCCUGGUGUCCUUGACCGCAUGAUGAAGAAACUGGACACCAACAGUGAUGGUCAGCCCGAUUUCUCAGAAUUUCUUAAUCUGAUUGGUGGCCCCGCUAUGGCUUGCCAUGACUCCUUCAACAGAGGAUUGAGCAUCA
B2: chr6:111661451:111661552:-|3pUTR|ENSG00000010810|msi1|FALSE|bound_elsewhere (ssRNA)
RNA: GGGAGUUCUACAGUCCGACGAUCCUUUGGAAAAUGCAUUGUAUCGAUGUUAUGUAAAAGGCCAAACCUCUGUUCAGUGUAAAUAGUUACUCCAGUGCCAACAAUCCUAGUGCUUUCCUUUUUUAAAAAUGCAAAUCCUAUGUGCAACAGAGGAUUGAGCAUCA
B3: chr2:205797254:205797461:+|3pUTR|ENSG00000118257|msi1|total|mutant (ssRNA)
RNA: GGGAGUUCUACAGUCCGACGAUCUCACCCUCCCAUGAUGCGCAGUGUUCAGAAAGCUGGUAAGUCCCCGGGAUUUCCAGAAGCCGCCUGCAGAAGAAGGUAAGUUUGAAAGCCACUCCAGGGGUCCUGAUGCUGUCAUGCUCACAACAGAGGAUUGAGCAUCA
B4: chr11:10770493:10770605:+|CDS|ENSG00000198730|unk|FALSE|unique (ssRNA)
RNA: GGGAGUUCUACAGUCCGACGAUCACAUGUGGCACCCAGUGAUACAGUUCUUAUGUUUAAUGUGGCCUUGGUCCUGCAAAGAUUAGCUACCUCUGUCCUGAAAGAUGAAAAAAGUAAUCUGAAGGAAGUACUUAAUGCUGUGAACAACAGAGGAUUGAGCAUCA
B5: chr13:32775312:32775413:+|3pUTR|ENSG00000083642|unk|FALSE|unique (ssRNA)
RNA: GGGAGUUCUACAGUCCGACGAUCGAAACUUGUAAAUAUCUUUUUUCUUUUUUUUAAUGUUUCUGAUUUCUGAAGUGCUUGUAUAGCUUUUAUCUGCGGCUUUAAACUGACAGUACCCGACUGUUUAUUGGAUCUAUUGAUUUGCAACAGAGGAUUGAGCAUCA
B6: chr7:20413385:20413486:+|3pUTR|ENSG00000105855|msi1|total|mutant (ssRNA)
RNA: GGGAGUUCUACAGUCCGACGAUCACUGAAGAUAUCUUUAUGCAAGACAAGAGUCAGCCAUCAGACACUGAAAUAUAUUAUGACCGAUUAUGAAGAAUUUUCUCUGCCGAAUUAUAUUCUUCCUGGAACCUGGCCGAGCCGAUUCAACAGAGGAUUGAGCAUCA
B7: chr19:54333184:54333571:-|three_prime_utr|ENSG00000239961|control|control|control (ssRNA)
RNA: GGGAGUUCUACAGUCCGACGAUCGCUGAGAAUAUCAAGGGGAAGAAGCAUGGGUCAGGUGCAGGAAGAUGUCUGGGUGUCUGUAGAAGAUGCUUCCUCCAUUAAACUGUGGUGCUUUCCUCCUCAUUGUCGACUCUCCUUGACCAACAGAGGAUUGAGCAUCA
B8: ENSG00000198589:be:win_7751|CDS|ENSG00000198589|bound_else_gene|NA|bound_elsewhere_windowed (ssRNA)
RNA: GGGAGUUCUACAGUCCGACGAUCAAGUGCAUUCCCAGUGCUUUGUCAUCACUUCAGACAACCGCUAUAUUCUCGUCUGUGGCUUCUGGGAUAAAAGUUUCAGAGUCUAUUCUACAGACACAGGAAGAUUGAUCCAAGUGGUGUCAACAGAGGAUUGAGCAUCA
B9: chr1:27612063:27612913:-|three_prime_utr|ENSG00000000938|control|control|control (ssRNA)
RNA: GGGAGUUCUACAGUCCGACGAUCGGUGGCCACCAGUCCUUGCCAAUCCCCAGAGCUGUUCUUCCAAAGCCCCCAGGCUGGCUUAGAACCCCAUAGAGUCCUAGCAUCACCGAGGACGUGGCUGCUCUGACACCACCUAGGGCACAACAGAGGAUUGAGCAUCA
B10: chr17:48061271:48061372:+|3pUTR|ENSG00000082641|msi1|total|mutant (ssRNA)
RNA: GGGAGUUCUACAGUCCGACGAUCAGUGAAAUGGGGGUGGGGGGAAGCACUGAUUCCCAGUCCGGGGGUGCCUAACUGAGCAGCCGGGACCGAAGGUGUGAACCUGGGAGUGCUUUUAUAAAUUAUUUUCCUUGCCGAUUUUAUCAACAGAGGAUUGAGCAUCA
B11: chr15:25371268:25371377:-|CDS|ENSG00000114062|unk|total|mutant (ssRNA)
RNA: GGGAGUUCUACAGUCCGACGAUCCACAAUGUAUACUCUCGAGAUCCUAAUUAUCUGAAUUUGUUCAUUAUCGUAAUGGAGAACCGAAAUCUCCACAGUCCUGAAUAUCUGGAAAUGGCUUUGCCAUUAUUUUGCAAAGCGAUGCAACAGAGGAUUGAGCAUCA
B12: chr2:120222042:120222143:-|CDS|ENSG00000226479|msi1|FALSE|bound_elsewhere (ssRNA)
RNA: GGGAGUUCUACAGUCCGACGAUCGAAAUUUUCCCAUUUUUAAGAGAAUAUGGGAACAUUUCAUAUGAUCUCCAUCACGAAGAUAGUGAAGAUGCUGAAGAAACAUCAGUUCCAGAAGCUCCGAAAAUUGCUCCAAUAUUUGGACAACAGAGGAUUGAGCAUCA
B13: chr1:71070866:71070979:-|CDS|ENSG00000132485|unk|FALSE|bound_elsewhere (ssRNA)
RNA: GGGAGUUCUACAGUCCGACGAUCGAGGAUGAAGAUGACGCUGAUCUCUCAAAAUAUAAUCUUGAUGCCAGUGAAGAAGAAGAUAGUAAUAAAAAGAAAUCUAAUAGACGAAGUCGCUCAAAGUCUCGAUCUUCACAUUCACGACAACAGAGGAUUGAGCAUCA
B14: chr6:151351738:151351839:+|CDS|ENSG00000131016|msi1|FALSE|unique (ssRNA)
RNA: GGGAGUUCUACAGUCCGACGAUCGGUGGUGGGGCAGACCACCCCAGAAAGCUUUGAAAAAGCUCCUCAAGUCACAGAGAGCAUAGAGUCCAGUGAGCUUGUAACCACUUGUCAAGCCGAAACCUUAGCUGGGGUAAAAUCACACAACAGAGGAUUGAGCAUCA
B15: ENSG00000173848:stop:overlap|stop_codon|ENSG00000173848|stop_codon|NA|stop_codon (ssRNA)
RNA: GGGAGUUCUACAGUCCGACGAUCGCAUCCGAAGAGCGAGGGACAAAGCCCUUUCUGGUGGCAAACGGAAAGAGACUUUGGUGUAGAGAAGGCUCUGUGUGUUAACUGAUGGGAGAGACUGUUUGUUUAUAAAUGUGUACAGUUCAACAGAGGAUUGAGCAUCA
B16: ENSG00000107863:be:win_2801|CDS|ENSG00000107863|bound_else_gene|NA|bound_elsewhere_windowed (ssRNA)
RNA: GGGAGUUCUACAGUCCGACGAUCAGGAAGGGUGGCUUCAUUUCCGACCCCUUGUCACCGAUAAGGGCAAGCGAGUUGGUGGAAGUAUUCGGCCAUGGAAACAGAUGUAUGUUGUCCUUCGGGGUCAUUCACUUUACCUGUACACAACAGAGGAUUGAGCAUCA
B17: chr2:48720039:48721685:-|three_prime_utr|ENSG00000138039|control|control|control (ssRNA)
RNA: GGGAGUUCUACAGUCCGACGAUCGACUCUCUUUUAUAUCACUGGAUUCUAAAAAUUGGUAUCCUUGGUGCACUGCCUUUGUAUAGUACUUUUACUUUGUGUAGAUGUAAUUUUACAUGUAUAAUUGUCAUGUUACAAAGCUGUCAACAGAGGAUUGAGCAUCA
B18: chr12:30629720:30629821:-|3pUTR|ENSG00000133704|msi1|FALSE|bound_elsewhere (ssRNA)
RNA: GGGAGUUCUACAGUCCGACGAUCCUUCUUGCUUUCUCACCUAUUUGAAUUUUCUCCUACCUAAUUUGUUUGUGUCUUUAUUAUAGCUCAGUUUGACUUCUCAAACUUUUCAAGGGUUGGGGCAGCUGCACUUUUAGGUUGCCUCAACAGAGGAUUGAGCAUCA
B19: chr14:52327222:52327364:+|CDS|ENSG00000125384|unk|total|mutant (ssRNA)
RNA: GGGAGUUCUACAGUCCGACGAUCAUUUUUGCAUAUAUGAAUGAAACCUCUUCCCGAAAGGAAAAAUGGGACCUCCAAGCUCUCCGGUUUUUAUCAAUUAAUUCAAUAAUUGACCCUUGGGUCUUUGCCAUCCUCCGGCCUCCUCAACAGAGGAUUGAGCAUCA
B20: chr1:111117940:111118053:-|3pUTR|ENSG00000156171|unk|FALSE|unique (ssRNA)
RNA: GGGAGUUCUACAGUCCGACGAUCAGGCUGACAGUAACACUGAUGAAUGCUGAUAAUCAGGAAACAUGAAAGAAGCCAUUUGAUAGAUUAUUCUAAAGGAUAUCAUCAAGAAGACUAUUAAAAACACCUAUGCCUAUACUUUUUCAACAGAGGAUUGAGCAUCA
B21: ENSG00000198589:be:win_5801|CDS|ENSG00000198589|bound_else_gene|NA|bound_elsewhere_windowed (ssRNA)
RNA: GGGAGUUCUACAGUCCGACGAUCUGUGUGAUCAUUUGAUAAGAGCAGCAAAAUAUCGUGACCACGUGACAGCAACUCAACUAAUCCAGAAAAUUAUCAACAUUCUCACAGACAAGCAUGGAGCCUGGGGAAAUUCUGCAGUGACAACAGAGGAUUGAGCAUCA
B22: chr7:135928980:135929074:-|3pUTR|ENSG00000105887|msi1_unk|FALSE|overlapping (ssRNA)
RNA: GGGAGUUCUACAGUCCGACGAUCUAAAAAUAGAAUCAUAGCCAUAAGCCUGUUAGUAUCAUAUGAAGAGAGAACAGUUAUCUUAGUACCUAUGGAUUUUCUUUAUUUGCUGUUUGAAUGGAUUGACCUUGGUUAUGUGUUGAGCAACAGAGGAUUGAGCAUCA

The binders below were run against T1, UNK ZnF1-6 (called full-length) (assay: nsRBNS (natural sequence RNA bind-n-seq); RBNS binding buffer (assumed for nsRBNS): 25 mM Tris pH 7.5, 150 mM KCl, 3 mM MgCl2, 0.01% Triton X-100, 500 ug/ml BSA, 20 U/ml SUPERase-In, 4 C; UNK is unkempt and MSI1 is Musashi-1; names of the RNAs are library labels; protein concentration not given here; high values mean tight binding).
In the case of B1, the binding signal is reported as 0.427 enrichment R.
In the case of B2, the binding signal is reported as 1.11 enrichment R.
B3 gave a binding signal of 0.712 enrichment R.
Work on B4 yielded a binding signal of 0.82 enrichment R.
B5 gave a binding signal of 1.27 enrichment R.
B6 showed a binding signal of 0.292 enrichment R.
For B7, the binding signal was 0.755 enrichment R.
B8 gave a binding signal of 0.285 enrichment R.
Binder B9 has a binding signal of 1.41 enrichment R.
B10 was tested, and the binding signal was 1.55 enrichment R.
Binder B11 has a binding signal of 0.458 enrichment R.
With B12 the binding signal was 0.19 enrichment R.
For B13, the binding signal was 0.527 enrichment R.
For B14, the binding signal was 0.711 enrichment R.
Binder B15 has a binding signal of 1.07 enrichment R.
In the case of B16, the binding signal is reported as 0.479 enrichment R.
Work on B17 yielded a binding signal of 0.34 enrichment R.
Binder B18 has a binding signal of 1.18 enrichment R.
With B19 the binding signal was 0.652 enrichment R.
B20 was tested, and the binding signal was 0.438 enrichment R.
B21 showed a binding signal of 0.596 enrichment R.
With B22 the binding signal was 0.98 enrichment R.
